This passage reports TGI and GI50 results from PubChem BioAssay (NCI).

Where “and” joins values, the source holds several entries; their conditions need not be identical. Equal entries are not always repeated.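 Tested at 5 concentrations; 48 h exposure; 96-well plates; endpoints linearly interpolated, else capped at highest concentration. GI50 = concentration required for 50% inhibition of growth. TGI: total growth inhibition.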

This assay has as its system NCI-H322M lung. In words: DTP human tumour cell line panel, 48 h.
One may read the TGI as the concentration giving total growth inhibition. Higher therefore signals less potent growth arrest. Compound `COC(=O)C(=O)C(C(=O)C=C(C)C)C(=O)C(=O)Nc1ccc(C)cc1C` (configuration not stated) showed a TGI greater than 100 µM.

As for `C=CCc1cc(-c2cc(CC=C)c(O)c(CNCCCl)c2)cc(CNCCCl)c1O`, the TGI amounted to 85.9 µM.

Consider `C=C(CC[C@@H](C)[C@H]1CC[C@@]2(C)C3=C(CC[C@]12C)[C@@]1(C)CC[C@H](O)[C@@H](C)C1CC3)C(C)C` (some centres not stated), for which the TGI was 2.3 µM.

In turn, `N#C/C(N)=C(\C#N)N=CN` displayed a TGI greater than 100 µM.

In turn, `COc1ccc(C2C3=C(Nc4ncnn42)c2ccccc2OC3c2ccccc2)cc1` (configuration not stated) came in with a TGI of 88.8 µM.

For the compound `c1ccc(CSP234N5CCN2CCN3CCN4CC5)c(CSP234N5CCN2CCN3CCN4CC5)c1`, the TGI is greater than 100 µM.

For `N#Cc1nc(C2=C(Cl)c3ccccc3OC2)[nH]c1C#N`, the concentration for total growth inhibition (TGI) turned out to be 75.6 µM.

By GI50 is commonly meant the concentration at which growth is held to half of that of the control. Regarding `N#Cc1cccc(NC(=O)c2cc(-c3ccc(F)cc3F)ccc2O)c1`, the GI50 is 2.84 µM and the TGI was determined as 9.42 µM.

Consider `C=C(C)C(=O)OC1CCC2(C)C(CCC3C2CCC2(C)C(c4ccc(=O)oc4)CC4OC432)C1` (configuration not stated), for which the TGI is 41.8 µM.

On to `Cc1ccc(/C=C2\CCC/C(=C\c3ccc(O)c(CN4CCCCC4)c3)C2=O)cc1`, for which the TGI was determined as 43 µM.

With `CON(C)C(=O)N1N=C(c2cc(F)ccc2F)SC1(CCCN)c1ccccc1` (configuration not stated), the GI50 is less than 0.01 µM; the concentration for total growth inhibition (TGI) was 18 µM and 17.2 µM.

For `CN1C2CCC1CC(CCNC(c1ccccc1)c1ccccc1)C2` (configuration not stated), the TGI is greater than 100 µM.

Consider `CCCCCCC(=O)C/C(=N/NC(N)=S)C(=O)NC1C2CC3CC(C2)CC1C3` (configuration not stated), for which the TGI was greater than 100 µM.

`Cc1ccc(NC(=S)N/N=C(/c2ccccc2)c2ccccn2)cc1` displayed a TGI of 0.0159 µM.

On to `COC(=O)C(COC(C)=O)NC(=O)/C=C/c1ccc(O)c(OC(C)=O)c1` (configuration not stated), for which the total growth inhibition concentration (TGI) was greater than 100 µM.

On to `C=C1C(=O)O[C@H]2[C@H]1CC/C(COC(=O)c1cc3ccccc3s1)=C\CC[C@@]1(C)O[C@@H]21`, for which the GI50 was 1.98 µM and the TGI came out at 4.68 µM.

On to `COC1=CC2(C=CC1=O)c1cc(OC)c(OC)cc1CCN2C(=O)c1ccccc1` (configuration not stated), for which the TGI is greater than 100 µM.

Regarding `CCCCCCCCCCN(CCCCCCCCCC)C(=O)COc1c2cc(C(C)(C)C)cc1Cc1cc(C(C)(C)C)cc(c1OCC(=O)N(CCCCCCCCCC)CCCCCCCCCC)Cc1cc(C(C)(C)C)cc(c1OCC(=O)N(CCCCCCCCCC)CCCCCCCCCC)Cc1cc(C(C)(C)C)cc(c1OCC(=O)N(CCCCCCCCCC)CCCCCCCCCC)C2`, the total growth inhibition concentration (TGI) came to 33 µM.

`Clc1ccccc1/C=C/c1cscn1`: the TGI was greater than 100 µM.

`N#CCc1ccc(C(C#N)/C(CCCC(=O)Nc2cccc([N+](=O)[O-])c2)=N/NC(N)=S)cc1` (configuration not stated) yielded a total growth inhibition concentration (TGI) greater than 100 µM.

`CCOP(=O)(CN1CCNCCNCC1)OCC` had a TGI greater than 100 µM.

In turn, `c1cc2c(ncc3cscc32)s1` displayed a TGI greater than 100 µM.

`COC(=O)C1C(=O)C=CN([C@H](C)c2ccccc2)[C@@H]1Cc1ccc(OC)c(OCc2ccccc2)c1I` (some centres not stated) returned a TGI of 61.9 µM.

`Cc1ccc(-c2cc(=O)c3cc(C)c(C)c(C(=O)O)c3o2)cc1C`: the TGI is greater than 100 µM.

`Cc1ccc(NC(=O)c2cccc(OP(=O)(O)Nc3ccc(C)cc3)c2)cc1` registered a total growth inhibition concentration (TGI) greater than 100 µM.

On to `N.N.O=C([O-])P(=O)([O-])[O-].[Na+].[Pt+4]`, for which the GI50 is greater than 100 µM and the TGI is greater than 100 µM.

In the case of `C/C=C(/C)C(=O)O[C@H]1C[C@@H]2[C@@H](O)c3occ(C)c3C[C@]2(C)[C@@H](C)C1`, the TGI worked out at 35 µM.

The compound `O=C1NCCCNCCCNCCCNC(=O)c2cccc1n2` returned a TGI greater than 100 µM.

`CC(C)N1CN(C(C(=O)N[C@@H]2C(=O)N3C2SC(C)(C)C3C(=O)O)c2ccccc2)CSC1=S` (some centres not stated): the TGI is greater than 100 µM.

The compound `O=C(Nc1ccc(Cl)cc1Cl)C(=O)C(C(=O)c1ccncc1)C1OC(=O)c2ccccc21` (configuration not stated) had a concentration for total growth inhibition (TGI) greater than 100 µM.

As for `COc1ccc(-n2cc(-c3cc(OC)c(OC)c(OC)c3)[nH]c2=O)cc1Cl`, the GI50 is greater than 100 µM and the TGI was greater than 100 µM.

For the compound `C=C1CC[C@@H]2[C@](C)(COC(C)=O)[C@H](OC(C)=O)CC[C@@]2(C)[C@@H]1CC(Nc1ccc(S(=O)(=O)Nc2ncccn2)cc1)C1=CCOC1=O` (some centres not stated), the GI50 is 3.12 µM and the concentration for total growth inhibition (TGI) amounted to 11.2 µM.

In turn, `Cc1cc(=O)n2nc(CN3CCCCC3)sc2n1` yielded a TGI greater than 100 µM.

`CC(=O)OC1(C)C=CC(=O)C=C1` showed a TGI greater than 100 µM.

With `CCc1ccc(Nc2ccc([N+](=O)[O-])cc2[N+](=O)[O-])cc1`, the TGI was greater than 100 µM.

For `COc1ccc(C2SCC(=O)N2NC(=O)Nc2c(C)nc3ccccn23)cc1` (configuration not stated), the GI50 was 74.3 µM and the TGI was greater than 100 µM.

In turn, `CC1=N/C(=C\c2cccc([N+](=O)[O-])c2)C(=O)O1` yielded a TGI greater than 100 µM.

In turn, `COc1cc(OC)c2c(=O)c(OC)c(-c3ccc4c(c3)OCO4)oc2c1` registered a TGI greater than 100 µM.

The compound `O=C(N/N=C\c1cccc(O)c1)c1ccncc1` displayed a TGI greater than 100 µM.

Consider `Cc1ccc(N=Nc2c(C)c(C#N)c(=S)n(C3OC(CO)C(O)C(O)C3O)c2C)cc1` (configuration not stated), for which the total growth inhibition concentration (TGI) was greater than 100 µM.

For the compound `Cc1ccc2c3c(c(=O)[nH]c2c1)C1(C(C#N)=C(N)O3)c2cc(Br)ccc2-c2ccc(Br)cc21`, the GI50 was 2.5 µM and the TGI is 6.53 µM.

The compound `COc1ccc(CCN2CCN(CCc3ccc(OC)cc3)CC2)cc1` displayed a concentration for total growth inhibition (TGI) greater than 100 µM.

Consider `CCOC(=O)C(Cc1cn(S(=O)(=O)c2ccccc2)c2ccccc12)(NC(C)=O)C(=O)OCC`, for which the TGI was greater than 100 µM.

For `CSc1nc2cc(S(=O)(=O)N3CCCCC3)ccc2s1`, the TGI is greater than 100 µM.

On to `O=C1OC(c2ccco2)=N/C1=C\c1cccc([N+](=O)[O-])c1`, for which the TGI is greater than 100 µM.

With `CC(C)(C)c1ccc(O)c(CN(Cc2cc(C(C)(C)C)ccc2O)c2ccccc2)c1`, the TGI was found to be 31.2 µM.

In turn, `COC(C(O)c1ccc2c(c1)OCO2)P(=O)(c1ccccc1)c1ccccc1` (configuration not stated) returned a concentration for total growth inhibition (TGI) greater than 100 µM.

On to `CC1=CC(=O)N(n2c(Cc3ccccc3)n[nH]c2=O)C1=O`, for which the TGI is greater than 100 µM.

The compound `CN(C)/C=N/S(=O)(=O)c1nn2c(C=O)c(-c3ccc(Cl)cc3)nc2s1` came in with a TGI of 25.7 µM.

For the compound `Nc1ncn(C2CC(O)C(CO)O2)c(=O)n1` (configuration not stated), the concentration for total growth inhibition (TGI) was greater than 375 µM.

For `COC(=O)C12C3C4C1C1C2C3C41NC(=O)c1csc([C@@H](C[C@H](C(C)C)N(C)C(=O)[C@@H](NC(=O)[C@H]2CCCCN2C)C2CC2)OC(C)=O)n1` (some centres not stated), the 50% growth inhibitory concentration (GI50) is 0.177 µM and the TGI was greater than 33.3 µM.

For `Cc1ccc2[nH]c(C(=O)NN3C(=O)C(C)SC34CCCC(C)C4)c(-c3ccccc3)c2c1` (configuration not stated), the GI50 was greater than 100 µM and the TGI is greater than 100 µM.

In turn, `COc1ccc(C2=Nn3c(nnc(Cc4ccc(Cl)cc4)c3=O)SC2)cc1` gave a TGI greater than 100 µM.

On to `CC(=O)O.[Au].c1ccc([PH+](c2ccccc2)c2ccccc2)cc1`, for which the GI50 is 16.3 µM and the TGI worked out at 30.4 µM.

Turning to `CCN(CC)CC(=O)O[C@]1(CC)C(=O)OCc2c1cc1n(c2=O)Cc2cc3ccccc3nc2-1`, the TGI worked out at 0.585 µM.

Compound `CC12CCC([C@H](C(O)C3CCCCC3)C1=O)C2(C)C` (some centres not stated) yielded a TGI greater than 100 µM.

As to `CC(C)(C)c1ccc(-c2nc3ccc(Cl)cc3c(=O)o2)cc1`, the TGI was 98.3 µM.

For the compound `Nc1nc(-c2cccc(Cl)c2)c(-c2ccc3ncccc3n2)s1`, the GI50 was greater than 25 µM and the TGI is greater than 25 µM.

For `C=C[C@H]1C[C@@H]2C[C@@H]3[C@H]4C/C=C\C(=O)NCCCC5NC(=O)C(=C(O)/C=C/[C@@H]4CC(=O)[C@H]3[C@@H]2[C@H]1C)C5=O` (some centres not stated), the GI50 is 1.58 µM and the TGI was determined as 3.08 µM.

`C/C=C(\C)CC/C=C/CO[Si](C)(C)C(C)(C)C`: the TGI was greater than 100 µM.

As to `CC(=NNC(=S)Nc1ccc(C)cc1)c1cccc(C(C)=NNC(=S)Nc2ccc(C)cc2)n1`, the TGI was greater than 100 µM.

As to `COC1(OC)CC(CO)(CNc2nc(N)nc(Cl)c2/C=N\O)C1`, the TGI is greater than 100 µM.

With `CC1(C)N=C(N)N=C(N)N1c1ccc(OCc2ccc(S(=O)(=O)F)c(Cl)c2)c(Cl)c1`, the GI50 is 4.51 µM and the TGI is greater than 100 µM.

`N#C/C(=C\c1cc2ccccc2c2ccccc12)c1ccccc1` returned a TGI greater than 100 µM.

The compound `NC(N)=N/N=C/c1c(-c2cccc([N+](=O)[O-])c2)nc2n1CCS2` gave a TGI of 40.8 µM.

Consider `COC(=O)c1c(C)[nH]c(/C=C2\N=C(c3ccc[nH]3)C=C2OC)c1C`, for which the GI50 was 1.56 µM and the TGI came out at 6.5 µM.

`CCn1c2ccccc2n2c(=O)c3c(c(C#N)c12)CCCC3` returned a TGI greater than 100 µM.

Turning to `NCCCn1c2c(c3ccc([N+](=O)[O-])cc3c1=O)C(=O)c1cc(Br)ccc1-2`, the concentration for 50% growth inhibition (GI50) is 0.0481 µM and 0.0339 µM; the TGI was found to be 0.391 µM.

In turn, `NC(CCC(=O)O)C(=O)N1CCN(c2nc(N3CCCC3)c3nc(Cl)c(NCc4ccccc4)nc3n2)CC1` (configuration not stated) gave a TGI of 30.4 µM.

Turning to `Cc1ccc(C(=O)Nc2ccc(CN3CCN(C)CC3)c(C(F)(F)F)c2)cc1C#Cc1cnc(N)c2ccccc12`, the GI50 was 0.521 µM and the TGI is 1.4 µM.

`CC(C)c1ccc(C(c2ccc(OCC(=O)O)cc2)c2ccc(C(C)C)cc(=O)c2O)c(O)c(=O)c1` came in with a TGI greater than 100 µM.

With `COc1ccc(-c2nnc(COc3ccc(NC(=O)Nc4ccc(Cl)c(C(F)(F)F)c4)cc3F)o2)cc1`, the GI50 is 5.63 µM and the TGI came out at 67.7 µM.

With `O=C1/C(=C/c2ccc(O)cc2)CSc2ccc(Cl)cc21`, the GI50 is 16.9 µM and the TGI stood at 39.6 µM.

`O=c1oc2cc(O)ccc2c(O)c1C(c1ccccc1F)c1c(O)c2ccc(O)cc2oc1=O` displayed a TGI greater than 100 µM.

For the compound `O=S1(=O)N(CCNc2nccc(-c3c(-c4cccc(O)c4)nc4sccn34)n2)CCN1Cc1ccccc1`, the GI50 is 15 µM and the TGI was greater than 50 µM.

For `CCC(=O)c1c(C(F)(F)F)n([O-])c2ccc(C)cc2[n+]1=O`, the GI50 is 0.0246 µM and the TGI stood at 4.09 µM.

`O=C(O)Cc1cccc2c1OC(c1ccccc1)C(Cl)(C(=O)c1ccccc1)C2=O` (configuration not stated) yielded a TGI of 49.5 µM.

Turning to `NC(=S)Nc1ccc(S(=O)(=O)Nc2ccc(S(N)(=O)=O)cc2)cc1`, the TGI is greater than 100 µM.

As for `O=C(O)[C@@H]1CSCN1C(=O)[C@@H]1CCC(=S)N1`, the TGI was greater than 100 µM.

As to `COC(=O)[C@H](Cc1c[nH]c2ccccc12)NC(=O)[C@@H](OC)[C@@H]1Cc2cc3cc(OC4CC(OC5CC(O)C(O)C(C)O5)C(O)C(C)O4)c(C)c(O)c3c(O)c2C(=O)[C@H]1OC1CC(OC2CC(OC3CC(C)(O)C(O)C(C)O3)C(O)C(C)O2)C(O)C(C)O1` (some centres not stated), the GI50 was 0.00726 µM and the total growth inhibition concentration (TGI) stood at 0.115 µM.
